# Data published in PMC6919601, “Identification of Plasmodium dipeptidyl aminopeptidase allosteric inhibitors by high throughput screening” (PLoS ONE, 2019).
# About 230 (0.21%) of roughly 110,000 compounds showed an effect of 50% or more. The list shows a part of the results.
# Target: DPAP1 (Plasmodium falciparum, UniProt Q8IIJ9)
# Assay: primary screen, percent inhibition; read by cleavage of a fluorogenic dipeptide substrate; higher = more effect of the substance
# Design: species or system P. falciparum D10 trophozoite lysates; single well
# 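Also: 30 min substrate incubation versus DMSO and 10 µM JCP410 controls.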
# Chain of DPAP1 (Q8IIJ9 whole entry, looked up): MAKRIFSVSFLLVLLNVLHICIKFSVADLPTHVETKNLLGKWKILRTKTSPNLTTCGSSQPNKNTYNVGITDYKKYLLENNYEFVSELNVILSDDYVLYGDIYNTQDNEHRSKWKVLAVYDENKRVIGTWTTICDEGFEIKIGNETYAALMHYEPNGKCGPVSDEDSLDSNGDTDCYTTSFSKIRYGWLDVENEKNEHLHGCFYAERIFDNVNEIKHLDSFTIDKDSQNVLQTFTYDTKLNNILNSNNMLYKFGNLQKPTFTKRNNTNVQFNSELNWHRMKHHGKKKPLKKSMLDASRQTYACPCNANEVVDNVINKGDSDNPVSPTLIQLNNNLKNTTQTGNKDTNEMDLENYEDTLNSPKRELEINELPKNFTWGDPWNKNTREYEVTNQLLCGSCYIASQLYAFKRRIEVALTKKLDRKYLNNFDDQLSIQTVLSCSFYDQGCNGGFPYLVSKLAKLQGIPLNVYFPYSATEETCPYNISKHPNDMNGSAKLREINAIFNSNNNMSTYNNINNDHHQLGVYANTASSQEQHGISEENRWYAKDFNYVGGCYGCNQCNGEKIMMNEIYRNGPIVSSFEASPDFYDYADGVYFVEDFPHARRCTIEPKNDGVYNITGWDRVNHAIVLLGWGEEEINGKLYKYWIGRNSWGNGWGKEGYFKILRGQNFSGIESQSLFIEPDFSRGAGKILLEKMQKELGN
row,Structure (SMILES),% Inhibition @ 10 uM [%]
1,CCc1ccc(CC(=S)N2CCOCC2)cc1,1.41
2,CC1(C)CC2=NC3=C(C(=O)CC(C)(C)C3)C(c3cccc(OCC(=O)Nc4ccccc4)c3)C2=C(O)C1 (stereo not drawn),0.983
3,CCOc1ccc(C(=O)C2=C(O)C(=O)N(CCCN(C)C)C2c2ccc(C)cc2)c(C)c1 (stereo not drawn),-0.178
4,O=C(CCN1C(=O)C2CC=C(Cl)CC2C1=O)Nc1ccc(Br)cc1 (stereo not drawn),5.18
5,Cc1ccccc1NC(=O)C(Cc1ccc([N+](=O)[O-])cc1)N1C(=O)c2ccccc2C1=O (stereo not drawn),9.92
6,COc1ccc(N2C(=O)CC(N3CCN(c4ccccc4F)CC3)C2=O)cc1 (stereo not drawn),-1.96
7,CC(C)CNC(=O)CSCc1c(Cl)cccc1Cl,-4.03
8,Nc1c2c(nc3c1CCC3)CCCC2,-4.23
9,CCOc1cccc(-c2cc(C(=O)Nc3cc(C)on3)c3ccccc3n2)c1,-3.04
10,CCCNC(=O)CCCn1nc(C)n2c(cc3sccc32)c1=O,-1.58
11,CN(CCc1ccccn1)Cc1ccc(F)c(Br)c1,3.48
12,Cc1cccc(Cn2c(CN3CCN(Cc4ccccc4)CC3)nc3c2c(=O)n(C)c(=O)n3C)c1,1.23
13,COCCNC(=O)c1cccc2c1C(=O)N(C1CCCCC1)C2,4.01
14,COCCNC(=O)CCCCCNc1nc(S)nc2ccccc12,15.7
15,CCOc1ccc(-c2[nH]nc3c2C(c2ccccc2F)C(C#N)=C(N)O3)cc1 (stereo not drawn),-0.99
16,O=C(Nc1nn2c(-c3ccccc3)nnc2s1)c1ccccc1,1.68
17,NC(=O)c1c(NC(=O)c2ccc(Br)o2)sc2c1CCCCCC2,12.5
18,COc1ccc(C2CC(=O)NC3=C2C(=O)CC(C)(C)C3)cc1 (stereo not drawn),4.63
19,O=C(Cn1ncc2c(=O)oc3ccccc3c21)NCc1cccs1,-8.63
20,CN1CCN(CC(c2ccccc2)c2ccccc2)CC1,-5.65
21,CCN(CC)c1ccc(NC(=O)c2cc(OC)cc(OC)c2)cc1,-4.15
22,Cc1[nH]nc2c1C(c1ccc(Br)cc1F)C(C#N)=C(N)O2 (stereo not drawn),0.385
23,COc1ccccc1OCCCn1c(C)c(C(=O)C(F)(F)F)c2ccccc21,3.63
24,Cc1ccc(SCC(=O)Nc2nnc(CCS(=O)(=O)c3ccc(Cl)cc3)s2)cc1,1.26
25,CN(C)c1ncnc2c1cnn2C,-7.06
26,COc1ccc(-c2nc3s/c(=C\c4ccncc4)c(=O)n3n2)cc1,1.91

row,Structure (SMILES),% Inhibition @ 10 uM [%]
1,CS(=O)(=O)c1nc(S(=O)(=O)c2ccc(Cl)cc2)c(NCCCn2ccnc2)s1,-0.522
2,NC1=NC(=O)/C(=C/c2cc(Br)c(O)c(Br)c2)S1,-2.87
3,COc1ccc(Cc2nc3c4cnn(-c5nc6ccccc6s5)c4ncn3n2)cc1OC,-1.32
4,Cc1c(C(=O)N2CCc3ccccc3C2)sc2nc(-c3ccc(F)cc3)cn12,-0.138
5,COc1ccc(CN2CCN(Cc3ccccc3C)CC2)cc1,2.28
6,Cc1c(/C=N/n2cnnc2)c(O)n2c(nc3ccccc32)c1C#N,-1.25
7,NC(=O)CSc1cn(CC(=O)N2CCCCC2)c2ccccc12,6.79
8,Cc1cc(S(=O)(=O)Nc2cccnc2)c(C)cc1Cl,-0.183
9,CCOc1ccc(N2CC(C(=O)Nc3cccc(Cl)c3)CC2=O)cc1 (stereo not drawn),6.65
10,CCc1c(C)c2ccc3c(c2oc1=O)CN(CCc1ccc(OC)c(OC)c1)CO3,-2.13
11,CCOc1ccc(-c2nc(C)c(C(C)=O)n2O)cc1,-4.77
12,COc1cc(/C=C2/SC(=O)N(C(C)C)C2=O)ccc1OCC(=O)Nc1ccc(C)cc1,-5.3
13,COc1ccc2cc3c(N)nn(C(=O)CN4CCOCC4)c3nc2c1,-1.28
14,O=C(NC1CON=C1NCCc1c[nH]c2ccccc12)OCc1ccccc1 (stereo not drawn),10.8
15,O=C1NC(=O)C(=Cc2ccccc2C(F)(F)F)C(=O)N1,-5.6
16,CC(Oc1ccccc1)C(=O)Nc1ccc2ccccc2c1 (stereo not drawn),0.907
17,CCN(CC)c1ccc(C(C2=C(O)CC(C)(C)CC2=O)C2C(=O)CC(C)(C)CC2=O)c(O)c1 (stereo not drawn),4.8
18,CCSCCOC(=O)C1=C(C)NC(=O)CC1c1cccc(Cl)c1Cl (stereo not drawn),-6.14
19,O=C1c2cccnc2C(O)N1Cc1ccccc1 (stereo not drawn),3.96
20,COc1ccc(CN2CCN(CC3CC=CCC3)CC2)c(OC)c1OC (stereo not drawn),-5.26
21,COc1ccc(OCc2cccc(C(=O)Nc3cc(C)on3)c2)cc1,-1.04
22,CCCNCc1cc2ccccc2o1,-2.36
23,COc1cc(CN2CCCC(C(=O)N3CCCCCC3)C2)ccc1OCc1ccccc1 (stereo not drawn),0.565
24,Cc1cccc(-n2ncc3c(N4CCC5(CC4)OCCO5)ncnc32)c1,5.69
25,NC(=O)c1nn(-c2ccccc2)nc1NC(=O)CSc1nc(O)c2c3c(sc2n1)CCCC3,18.2
